# Source: the supplement of paper PMC12217912
# The list shows a part of the results. Sequences were assembled here from the parent chain. Values near 0.05 are background.
# B1: TEV protease; numbered along this chain (parent)
# chain: MGESLFKGPRDYNPISSSICHLTNESDGHTTSLYGIGFGPFIITNKHLFRRNNGTLVVQSLHGVFKVKDTTTLQQHLVDGRDMIIIRMPKDFPPFPQKLKFREPQREERICLVTTNFQTKSMSSMVSDTSCTFPSGDGIFWKHWIQTKDGQCGSPLVSTRDGFIVGIHSASNFTNTNNYFTSVPKNFMELLTNQEAQQWVSGWRLNADSVLWGGHKVFMVKPEEPFQPVKEATQL
# Variants of: B1
# Assay: raw area under fraction-flipped curve 0-4 h after induction (AUC4h, not background-subtracted), DNA-recorder readout of cleavage of the substrate (dimensionless); higher = more cleavage of the substrate by the protease variant
# Conditions: temperature: 34 °C; time window: 0-4 h after rhamnose induction
# Protocol: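 In vivo DNA recorder in E. coli TOP10(DE3) ΔrhaA at 34 °C. Each TEVp single-site mutant (parent TEVp 0) is paired with a single-site variant of the 7-mer TEVs (canonical ENLYFQ|S). The substrate sits between flexible linkers in a Bxb1-sfGFP-TEVs-SsrA fusion, so cleavage stabilises Bxb1 and speeds flipping of a recombination array, read by NGS. The value is the raw area under the fraction-flipped curve over 0-4 h after rhamnose induction (AUC4h), with ≥20 reads per time point. It is not background-subtracted; inactive controls average about 0.047.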
# 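Also: Bxb1 expression induced with 0.2% (w/v) L-rhamnose at OD600 near 0.5, cultures sampled hourly, flipped fraction per protease–substrate barcode pair counted by paired-end Illumina sequencing.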
Variant,area with substrate ENLYFQC,area with substrate ENLYFQD,area with substrate ENLYFQE,area with substrate ENLYFQG,area with substrate ENLYFQH,area with substrate ENLYFQI,area with substrate ENLYFQK,area with substrate ENLYFQL,area with substrate ENLYFQM,area with substrate ENLYFQN,area with substrate ENLYFQP,area with substrate ENLYFQR,area with substrate ENLYFQS,area with substrate ENLYFQT,area with substrate ENLYFQF,area with substrate ENLYFQW,area with substrate ENLYFQY,area with substrate ENLYFQQ,area with substrate ENLYFQV
K148V,0.104,0.0653,0.0566,0.091,0.0653,0.067,0.0766,0.0622,0.0647,0.0523,0.0563,0.0755,0.101,0.0627,,,,,
K68H,0.119,,,,0.133,0.0394,0.0715,,0.109,,,,0.103,0.0681,0.0771,0.0639,0.0782,,
L61P,0.122,0.0646,0.0677,0.101,0.0785,0.0545,0.0624,0.0637,0.0736,0.0573,0.0428,0.0531,0.0997,0.0497,,0.0602,0.082,,
S4Q,0.113,,0.0661,0.0979,,0.0538,0.0592,0.068,0.0847,,0.0573,,0.102,0.103,,,0.0685,0.0804,0.0657
F65H,0.113,0.06,,,0.102,0.0551,0.0742,0.0864,0.0932,0.0823,,0.0816,0.102,0.07,0.0724,0.0597,0.0533,0.0534,
T70P,0.0841,,,,,,0.0619,0.0683,0.0755,0.0638,,0.0617,0.0751,,0.0708,0.0738,0.0766,,
L211W,0.103,,,,0.098,,,,,0.0935,0.0588,0.0592,0.102,0.0606,0.0597,,0.0855,0.0459,0.0615
K230Y,0.112,0.0697,0.0813,0.0929,0.0511,0.0423,0.0645,0.0507,0.0875,,0.0569,,0.0926,0.0717,,0.074,,0.0652,0.0605
V217I,0.128,,,0.106,0.149,0.0586,0.0777,0.0651,0.0833,0.0887,0.059,0.0516,0.103,,,0.0629,0.0822,,0.0586
L235K,0.148,,,0.149,,,0.0596,0.0676,,,,0.0607,0.117,0.068,,0.06,0.0866,,0.0612
I110Y,0.0616,0.0626,,,,,,,,0.0652,,,0.0653,,,,0.0583,,
G153K,0.0464,0.0492,,,,,,0.0595,0.0673,0.0345,,,0.0546,,,0.0411,,,
S158F,0.0523,0.0564,,0.0498,0.0527,,0.0509,0.0348,,,,,0.0518,0.0602,,0.0495,0.0613,,
D91K,0.0928,,,,0.0694,,0.0615,0.0536,0.068,,,0.0565,0.0996,,,,0.0786,,
F133R,0.134,0.0723,,0.118,0.108,0.0619,0.0593,0.0637,0.134,0.0813,,0.0616,0.137,,,0.0705,0.177,,
